Reference: PubChem BioAssay AID1345083 (National Center for Advancing Translational Sciences (NCATS), 2018)
Hit rate of the full screen: of about 94,000 compounds, about 6,200 (6.6%) were called active. Inconclusive means that the source gave no clear call. Such entries were picked first, then a sample of the others. Calls come from the whole dose curve; as a rule, active = well fitted inhibition curve with a large enough effect; inconclusive = small, poorly fitted or top-dose-only effect; inactive = flat fitted curve, though single readings scatter. Potencies beside an inconclusive call are fits to weak or partial responses and may not hold up.

test: Cytotoxic Profiling in HEK 293 Cell Line of Diverse Libraries Using Quantitative High-Throughput Screening; conditions: HEK 293 viability, ATP luminescence (CellTiter-Glo), 48-72 h; series mostly up to 115 µM; note: nearly all actives have a fitted effect of over 60% in size
How it was run: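 ATP-coupled CellTiter-Glo luminescence served as viability read-out, recorded 10 min after reagent addition at room temperature. HEK 293 cells, 250 cells/well, had been incubated with pintool-transferred compound for 48 or 72 hr at 37 degree Celsius.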
Potency is the fitted concentration of half-maximal effect; tags give direction and shape of the fitted curve.

Which Potency does the source give for `Cc1ccc(C(=O)NCC2CCN(c3cnn(C)c(=O)c3)C2)c(=O)n1C` (stereo unspecified) here?
Its Potency is inconclusive: 39.8 µM [inhibitor, single point].

For `COc1ccc(-c2ccc3ncc(Nc4cc(F)cc(N5CCOCC5)c4)n3n2)cn1`, which Potency is on record?
The Potency was inconclusive: 31.6 µM [inhibitor, full curve, poor fit].

For `COc1ccc(OCC2(C)COc3ccc(C(=O)N(C)c4ccccc4)cc3N2)cc1` (stereo unspecified), which Potency is on record?
The Potency was inconclusive: 112 µM [inhibitor, partial curve, poor fit].

For `O=C(c1ccc(F)c(Cl)c1)N1CCC[C@H]1c1nc(-c2ccccc2)no1`, which Potency is on record?
The Potency was inconclusive: 79.4 µM [inhibitor, partial curve, poor fit].

Which Potency does the source give for `Cc1oc2c(c1C(=O)NC(C)c1ccco1)CN(Cc1ccc(F)cc1)CC2` (stereo unspecified) here?
Its Potency is inconclusive: 56.2 µM [inhibitor, partial curve, poor fit].

With `Cc1nn2c(c1-c1cccnc1N1CCOCC1)N(CC1CCOCC1)CCC2` as the compound, how does the Potency read?
Its Potency is inconclusive: 63.1 µM [inhibitor, full curve, poor fit].

With `COc1ccc(C2(C(=O)N3CCCC(c4nc(CCOCC5CC5)no4)C3)CC2)cc1` (stereo unspecified) as the compound, how does the Potency read?
Its Potency is inconclusive: 89.1 µM [inhibitor, single point].

For `COc1ccc(C(=O)N2CCCN(c3cc(-c4ccc(Cl)cc4)[nH]n3)CC2)cc1F`, which Potency is on record?
The Potency was inconclusive: 20 µM [inhibitor, full curve, poor fit].

For `Cc1ccccc1-c1onc(C)c1C(=O)NCc1cccc(F)c1F`, which Potency is on record?
The Potency was inconclusive: 89.1 µM [inhibitor, single point].

Which Potency does the source give for `O=C(O)C1(O)CCN(c2ncc(F)c(N3CCOCC3)n2)CC1` here?
The Potency was “inactive”.

With `COc1cccc(CNC(=O)c2cc(-c3cccc(C(F)(F)F)c3)nc3c2cnn3C)c1` as the compound, how does the Potency read?
Its Potency is “inactive”.

For `O=C(Nc1ccccc1F)N1CCC(Oc2ccccc2-c2nc(C3CC3)no2)C1` (stereo unspecified), which Potency is on record?
The Potency was inconclusive: 89.1 µM [inhibitor, partial curve, poor fit].

For `CC(C)CCN1CCn2c(nn(-c3ccc([N+](=O)[O-])cc3)c2=O)C1`, which Potency is on record?
The Potency was inconclusive: 100 µM [inhibitor, partial curve, poor fit].

For `COc1ccc(C(=O)N2CCC(Cc3nc(-c4ccccc4)no3)CC2)cc1OC`, which Potency is on record?
The Potency was inconclusive: 39.8 µM [inhibitor, partial curve].

With `Cc1cc(F)ccc1OC1CN(Cc2ccc(F)cc2)C1` as the compound, how does the Potency read?
Its Potency is inconclusive: 50.1 µM [inhibitor, partial curve, poor fit].

Which Potency does the source give for `Cc1nn(-c2ccccc2)c(Oc2ccc(F)cc2F)c1CCC(=O)NC1CC1` here?
The Potency was inconclusive: 50.1 µM [inhibitor, partial curve, poor fit].

For `N#Cc1ccccc1S(=O)(=O)N[C@H]1CO[C@H]2[C@@H]1OC[C@H]2OC(=O)Nc1cccc(C(F)(F)F)c1`, which Potency is on record?
Its Potency is inconclusive: 79.4 µM [inhibitor, partial curve, poor fit].

Which Potency does the source give for `CCN(CC1CCCO1)C(=O)C1CCN(c2nc(-c3ccccc3)nc3c2CCC3)CC1` (stereo unspecified) here?
Its Potency is inconclusive: 28.2 µM [inhibitor, full curve, poor fit].

For `CNC(=O)c1cccc(-c2cnc3[nH]cc(CC(=O)NCC(C)C)c3c2)c1`, which Potency is on record?
The Potency was inconclusive: 100 µM [inhibitor, partial curve].

With `O=C(NCc1cccnc1)c1ccc2nnc(Cc3ccco3)n2c1` as the compound, how does the Potency read?
The Potency was “inactive”.

For `CCCc1noc(-c2cccn3c(CNC(=O)Cc4ccc(Cl)cc4)nnc23)n1`, which Potency is on record?
The Potency was inconclusive: 89.1 µM [inhibitor, single point].

With `O=C1NCC(c2ccc(Cl)cc2)Cc2[nH]c(-c3ccc(O)cc3)nc21` (stereo unspecified) as the compound, how does the Potency read?
The Potency was inconclusive: 31.6 µM [inhibitor, full curve, poor fit].

For `O=C1Nc2ccccc2CC12CN(Cc1ccc(F)c(F)c1F)C2`, which Potency is on record?
Its Potency is inconclusive: 112 µM [inhibitor, single point].

Which Potency does the source give for `CC1=C[C@@H](CNCc2cccnc2)[C@H](C(C)C)C[C@H]1Cc1nnc(-c2ccncc2)o1` here?
The Potency was inconclusive: 50.1 µM [inhibitor, partial curve, poor fit].

Which Potency does the source give for `COCCNC(=O)c1cccc(-c2ccc(OC)nn2)c1` here?
Its Potency is “inactive”.

With `CCCN1CCc2[nH]cnc2C12CCN(C(=O)Cn1cc(C)c(=O)[nH]c1=O)CC2` as the compound, how does the Potency read?
Its Potency is “inactive”.

For `CN1C(=O)CS(=O)(=O)C12CCN(C(=O)CC(C)(C)C)CC2`, which Potency is on record?
Its Potency is “inactive”.

For `C[C@@H](c1ccccc1)N1C(=O)[C@@H]2CN(C(=O)CSc3ccncc3)CCN2C1=O`, which Potency is on record?
The Potency was inconclusive: 70.8 µM [inhibitor, full curve, poor fit].

For `CC(C)c1noc([C@H]2C[C@@H]3C(=O)NCCCCCCN(C(=O)Cc4cccnc4)[C@@H]3C2)n1`, which Potency is on record?
The Potency was inconclusive: 79.4 µM [inhibitor, partial curve, poor fit].

Which Potency does the source give for `O=C(CCc1ccccc1)N1CCC2OCCN(Cc3ccccc3F)C(=O)C2C1` (stereo unspecified) here?
Its Potency is inconclusive: 100 µM [inhibitor, partial curve, poor fit].

With `COc1cc(F)ccc1-c1cnc2n[nH]c(-c3ccc4c(c3)OCO4)c2n1` as the compound, how does the Potency read?
Its Potency is inconclusive: 25.1 µM [inhibitor, full curve, poor fit].

With `O=c1[nH]c(C2CCCN(Cc3cccc4ccccc34)C2)nn1-c1ccc(Cl)cc1` (stereo unspecified) as the compound, how does the Potency read?
Its Potency is inconclusive: 79.4 µM [inhibitor, partial curve, poor fit].

For `Cc1cccc(-c2cccc(CN3CCC(NC(=O)c4ccc(F)cc4)CC3)c2)c1`, which Potency is on record?
Its Potency is inconclusive: 44.7 µM [inhibitor, partial curve, poor fit].

With `COCC(=O)NC1CCN(c2nccc(Nc3ccc(C)cc3)n2)CC1` as the compound, how does the Potency read?
The Potency was inconclusive: 50.1 µM [inhibitor, partial curve, poor fit].

Which Potency does the source give for `CCCn1c(C)cnc1CC1CCN(S(=O)(=O)c2ccccc2)C1` (stereo unspecified) here?
The Potency was inconclusive: 50.1 µM [inhibitor, partial curve, poor fit].

For `O=C(O)C1(CCc2ccccc2)CCCN(c2ncnc3nc[nH]c23)C1` (stereo unspecified), which Potency is on record?
The Potency was “inactive”.

For `CN1CCOc2c(C(=O)NCc3cnn(C)c3)cc(-c3ccccc3)cc21`, which Potency is on record?
Its Potency is inconclusive: 100 µM [inhibitor, partial curve, poor fit].

With `COc1ccccc1-c1ccnc(N[C@H]2CO[C@H]3[C@@H]2OC[C@@H]3NS(=O)(=O)c2ccc(NC(C)=O)cc2)n1` as the compound, how does the Potency read?
Its Potency is inconclusive: 50.1 µM [inhibitor, partial curve, poor fit].

For `O=C(c1ccc2c(c1)OCO2)N1CCN(c2ccc3nnc(-c4ccccc4)n3n2)CC1`, which Potency is on record?
Its Potency is inconclusive: 56.2 µM [inhibitor, partial curve, poor fit].

With `CN1CCN(c2ncnc3sc4c(c23)CCNC4)CC1` as the compound, how does the Potency read?
Its Potency is inconclusive: 89.1 µM [inhibitor, single point].

With `COc1ccc(CN2C[C@H](O)C[C@H]2c2nc(-c3cccc(C)c3)no2)c2ccccc12` as the compound, how does the Potency read?
Its Potency is active: 100 µM.

Which Potency does the source give for `O=C(Cn1ccn2nc(-c3ccc(F)cc3)c(CO)c2c1=O)Nc1ccc(Cl)cc1F` here?
Its Potency is “inactive”.

For `CC(=O)NC1(C)CCN(Cc2ccc(-c3ccc4ccccc4c3)cc2)C1` (stereo unspecified), which Potency is on record?
The Potency was active: 28.2 µM.

Which Potency does the source give for `COc1ccccc1CCC(=O)N1CCC(Cc2nc(-c3ccc(F)cc3)no2)CC1` here?
Its Potency is inconclusive: 35.5 µM [inhibitor, partial curve, poor fit].

Which Potency does the source give for `COc1ccnc(N2CC[C@H](c3nnc(-c4ccc(C)cc4)o3)C2)n1` here?
Its Potency is active: 100 µM.

Which Potency does the source give for `COCCNC(=O)c1ccc2c(c1)C1(CCN(C)C1)CN2Cc1csc(C)n1` (stereo unspecified) here?
Its Potency is “inactive”.

With `O=C(c1ccsc1)N1CCC(N2CC(OCC3CC3)C23CCOCC3)CC1` (stereo unspecified) as the compound, how does the Potency read?
Its Potency is “inactive”.

With `CN(C)c1ccc2ncc(Nc3ccccc3)n2n1` as the compound, how does the Potency read?
Its Potency is active: 112 µM.

Which Potency does the source give for `COc1ncccc1-c1cn(C)c(=O)n2cc(CNc3ccccc3)nc12` here?
Its Potency is inconclusive: 100 µM [inhibitor, partial curve].

With `c1ccc(-c2nnc3ccc(NC4CCC4)nn23)nc1` as the compound, how does the Potency read?
The Potency was “inactive”.

Which Potency does the source give for `O=C(NC1CCCCC1)C1CCc2ncc(-c3ccsc3)n2C1` (stereo unspecified) here?
Its Potency is inconclusive: 44.7 µM [inhibitor, partial curve, poor fit].

Which Potency does the source give for `C[C@@H]1CN(C(=O)c2cnc3c(O)cccn3c2=O)CC[C@@]1(O)C1CCC1` here?
Its Potency is inconclusive: 89.1 µM [inhibitor, single point].

Which Potency does the source give for `Cc1cc2c(c(=O)n(-c3ccccc3)c(=O)n2CC(=O)Nc2ccccc2Cl)n1C` here?
The Potency was inconclusive: 89.1 µM [inhibitor, single point].

For `COc1cccc(N2CC(C(=O)NCCCc3ccccc3)NC2=O)c1` (stereo unspecified), which Potency is on record?
The Potency was “inactive”.

With `N#Cc1cccc(-c2cn3c(n2)N(C(=O)C2CCC2)CCC3)c1` as the compound, how does the Potency read?
The Potency was inconclusive: 79.4 µM [inhibitor, single point].

For `O=C(NCCc1ccccc1F)c1ccc2nnc(C3CC3)n2c1`, which Potency is on record?
The Potency was inconclusive: 100 µM [inhibitor, partial curve, poor fit].

Which Potency does the source give for `CC1Oc2ccc(NC(=O)c3cccc(F)c3)cc2CN(Cc2ccc3c(c2)OCO3)C1=O` (stereo unspecified) here?
The Potency was active: 39.8 µM.

For `O=C(C1CC1)N1CCC(Cc2nc(-c3ccc(F)cc3)no2)CC1`, which Potency is on record?
The Potency was inconclusive: 39.8 µM [inhibitor, partial curve, poor fit].

Which Potency does the source give for `O=C(CCc1ccccc1)N1CC(Oc2cccc(-c3nc(-c4ccccc4)no3)c2)C1` here?
The Potency was inconclusive: 50.1 µM [inhibitor, partial curve, poor fit].

For `CC(C)c1ccc(OCc2nc3c(n2Cc2ccccc2)C(=O)N(CC2CC2)CCN3)cc1`, which Potency is on record?
Its Potency is inconclusive: 63.1 µM [inhibitor, partial curve, poor fit].

For `COc1cccc(-c2cc3c(=O)n(CC(O)c4ccc(C(C)C)cc4)ccn3n2)c1` (stereo unspecified), which Potency is on record?
Its Potency is inconclusive: 39.8 µM [inhibitor, partial curve, poor fit].
